Measured values from the RNAGym collection of RNA variant scans (doi:10.7554/elife.90254).
The source gives no read counts; variants with many changes may rest on few reads.

B1: OR4K15 (parent)
chain: GUUAACGGUCAUAGGCCAUGGAAACUAGGAGCACCAUUUCGCUGCCAGUGAAGAAAUGAACAAAGAAAAUCUGGGCCAGGCAGGCAUCAAAAGAAAUAGUCUUGCGCUCAACCAGAAAGUCUGUAAUCAUUUUAAGGGUA

Variants of: B1
Assay: self-cleavage, relative activity (ratio to wild type); higher = more cleavage; in vitro, sequencing; the parent is a self-cleaving ribozyme

Row | Variant | self-cleavage
1 | G7U A11G U19C A63G U102C A111G | 0.02
2 | U72G A78U A89U | 0.2
3 | U38A U57C A91G A117G A118U | 0.77
4 | U37C U49C U127C | 0.67
5 | U9C A55U A62G | 1.34
6 | U2C A22G U49C | 0.86
7 | A60G G79A U103C U131C | 0.02
8 | A22G A30U A56G U57C A64G | 0.17
9 | A30G A59U A91U | 1.22
10 | A51U A69G A117U | 0.46
11 | C10U G79A A89G A140G | 0.11
12 | U43A A111G A114G A116G | 0.02
13 | U2C A30U U57C A59G A69G A95G | 0.66
14 | A33C U39A U49C A55G A67G A89G A116G | 0.89
15 | U39C A47C A59U A66U U122C | 0.85
16 | A90U A114U U131C U132C | 0.03
17 | A36U U49A A91G A92G A117G | 0.92
18 | A18G A27U A114U A116G | 0.02
19 | A56G A60G U97C A118U U120A | 0.23
20 | A5G A55G A129G | 0.46
21 | A18U A110U A129G U139A A140G | 0.72
22 | A33U A47G A54G A69G A96G A118G | 0.41
23 | U39C U43A A64G A92G | 2.55
24 | A54G A68G A82G A92G C105U A118G | 0.02

Row | Variant | self-cleavage
25 | U12C A22G U131C | 0.37
26 | U19G U57C U70A A126G | 0.2
27 | A33G A62G U72A | 0.05
28 | A64U U87C U100C | 2.85
29 | A69G A129C U131C | 1.38
30 | A22G G75A U132C | 0.2
31 | A4G A56G A64U A92G | 0.42
32 | U2G A56G A64G U97G | 1.44
33 | A111U U120C A140G | 0.04
34 | C6U U19C C42U A59G | 1.35
35 | A27G A30U A92G | 0
36 | A11G A24G U39C A52G A59G A82G | 0.49
37 | A23G U39C A52G A86G A118G U132C | 0.76
38 | A24G A27G U70C U87C A110C A118G A134U | 0.04
39 | A52G A55G U127C | 0.73
40 | A24G A86U U132C | 0.89
41 | A11U A55G A56G U130C | 0.7
42 | A47G A64G U132C | 1.62
43 | G41A A47G A94G U108C | 0.01
44 | A24C A33G G44A C77U A96G | 0.85
45 | U37C A69G U120C | 0.21
46 | U9A A82G U132C | 0.51
47 | G106C U108G A110U | 0.01
48 | A11C A24C U39A A56U U131C | 1.51

Row | Variant | self-cleavage
49 | C32U U37G A116U | 0.56
50 | A56G A116G U120C G123A | 0.26
51 | A51G A78U U102C U132C | 0.96
52 | G50A A51G U100A | 0.46
53 | G7A A89U U124G | 0.92
54 | U9C G53U A64G A67G A96G A111U | 0.23
55 | A30U A67G A86G | 1.14
56 | A59G C77U A82G A110G | 0.07
57 | A64G A68G A140U | 0.9
58 | U2A A82G A95G A111G U127G | 0
59 | A94G A110G U133C | 0
60 | U57C A63G A92G A134G | 1.87
61 | A18G A33G A62U | 0.41
62 | A78G A95G A140G | 0.22
63 | C35G U72A U131C A135G | 0.02
64 | U9A A33U A63G A66G A68G A134G | 0.5
65 | U39C U70C A95G U132C | 0.35
66 | U3C A51U A82G A111U | 0.06
67 | A5G A23U U26C A98G A118G U124A | 0.15
68 | U37C A60U A94G A135G | 2.26
69 | U9C A54G U132C | 2
70 | A60G U100C C105A | 0.03
71 | A22G A23U U49C | 0.79
72 | A36U A64G U70C A78G U87C U100G | 0.32

Row | Variant | self-cleavage
73 | U9C C32U U37C C128U | 1.24
74 | A5G A60G G79A | 0.26
75 | A62G A63G G79A | 0.17
76 | A27U C88U U120C | 0.9
77 | U19A A52G A60U A96G A111G U130G | 0.03
78 | A69G A96G A117G | 1.72
79 | U38C A68G A110U A125G | 0.42
80 | C61U U122C U124C | 0.69
81 | A5G A13G A63U A90G C113A | 0.06
82 | G21U A22G U130C | 1.25
83 | U9C A66G A67U A110C | 0.36
84 | A67C A94G A114G A116G | 0.4
85 | G84A U97G U108A A110U | 0.01
86 | U9C A47G A94G U132C | 1.46
87 | U38A U70C A92G A94G | 0.58
88 | A60G U72C A118G A129G | 0.06
89 | A59G A62U G75A A98U | 0.08
90 | A33G U38C A96U | 1.96
91 | U57C A60G A114G | 0.38
92 | A11G G115A A140G | 0.29
93 | G31A A52G A129G | 1.34
94 | A18G U49C A54G A111G | 0.04
95 | A54G A69G A111G A116G | 0.02
96 | A52G A90G A92U G119A | 1.07

Row | Variant | self-cleavage
97 | U9A A68G U120C U127A A134G | 1.08
98 | G73A A111G A114G | 0.02
99 | A5G A22G A54C A78C A91U U108A | 0.14
100 | U43C A89U A129G | 1.04
101 | U57A A78U U108A | 0.04
102 | A54G A60U A78G U120A | 0.33
103 | U2A A30U U57C A89G | 1.34
104 | U2C G41A A52G A129G A140G | 1.58
105 | A47U A51G U57C U133C A135G | 1.75
106 | U9C A23G A90G A118G | 1.33
107 | A22G U38C A62U A68G U132C | 1.05
108 | A30G A59G A94G | 0.67
109 | A52U A116U U131C | 0.19
110 | U2C A11U A67G A114G | 0.42
111 | U57C G93A U103C A135G | 0.47
112 | A23G A33G A47G | 0.66
113 | U57C A66G A96U | 1.76
114 | A11U A78U A98U | 0.32
115 | A52G A60G A86U | 0.91
116 | A4G A60G C88G G93U | 0.98
117 | A27G A67U A68C A91G | 0.57
118 | U37C A51G G137A | 1.92
119 | A52G A78G U130C | 0.21
120 | U9C U39A A111G | 0.03

Row | Variant | self-cleavage
121 | U2C U19C G83A C88A U102C U133A | 0.31
122 | A18G G20A A24G A56G A59U U133C | 1.52
123 | A47U A52G A96G U103C U122C | 0.2
124 | U39C A68G G75U A86G | 0.12
125 | A5G U39A A118G | 1.03
126 | G31A U39C A96G A118G | 1.37
127 | U39A A51G U57G | 0.26
128 | A54U A95G U108A | 0
129 | U19C A55G A59G A94U | 1.81
130 | U37C A63U A86G A111G | 0.03
131 | U38C A92U U133C | 1.83
132 | U2C C61U A117G | 0.31
133 | A5G U57A U102C A114U | 0.19
134 | U43A U127C U130C | 0.76
135 | A56G A82C U122C | 0.03
136 | U49C A92G A110U A111G A118G | 0
137 | A11G A30G U72C | 0.49
138 | A23G A47C A54G A60G A116C | 0.02
139 | G29A A33U U72C A86C | 0.11
140 | G8A U26A U43C A96G A98G | 0.35
141 | A55U A60U A94G | 1.81
142 | U70C A90G A116G | 0.88
143 | A117G A126G U131C | 0.48
144 | A36G U37C C105U | 0.31

Row | Variant | self-cleavage
145 | U2C A52G A86U G119A | 2.54
146 | A30G G50A A51G A117G U132G | 1.53
147 | A24G A54G U108C A117G | 0.02
148 | U9C U19A U39C A47G | 0.44
149 | U37C G41A U72C A94G | 0.25
150 | U19C A30G U87C | 0.23
151 | A59G A78U A91G | 0.08
152 | A5G G7A A52G U97C | 1.17
153 | U43A C46U A54G A86G A126G | 0.63
154 | A11G A68G C105G | 0.12
155 | A11G U19A U37C | 1.23
156 | A23G U43C A118G | 1.7
157 | U12G A22G U120A U131C | 1.57
158 | U38G A78G U127C | 0
159 | A55G A92G U132G | 1.36
160 | U39C U43C A59G A91G U102C A114U | 0.11
161 | U3C A11G G119A | 0.28
162 | U9C A24C A66G A78G U87A A129G | 0.09
163 | U43C A91G U130C U132C | 1.08
164 | A47G A52G U131C | 0.34
165 | U2C U38C A52G | 1.4
166 | A64U U87C A111G A116G | 0.01
167 | A11G A55G U100C | 1.11
